Source: PubChem BioAssay AID624296 (National Center for Advancing Translational Sciences (NCATS), 2012)
The whole screen tested about 350,000 compounds, of which about 9,900 (2.8%) were called active. The shares of active, inactive and inconclusive entries below differ from those in the screen. Calls follow the shape of the dose curve; as a rule, active = well fitted activation curve with a large enough effect; inconclusive = small, poorly fitted or top-dose-only effect; inactive = no such curve, though single readings can be large or run the other way. Potencies of inconclusive entries are left out as doubtful fits.

Assay: A quantitative high throughput screen for small molecules that induce DNA re-replication in MCF 10a normal breast cells. Also: nearly all actives have a fitted effect of over 50% in size.
Conditions: MCF 10A DNA re-replication, Hoechst nuclear intensity, 48 h; series mostly up to 46.1 µM
Potency is read from the fitted curve at half-maximal effect; tags tell the direction and shape of the fitted curve.

Compound	Potency
Cc1ccccc1C(=O)NNC(=O)Cc1ccccc1	inconclusive [activator, single point]
COCCCNC(=S)N1CCN(c2nc3ccccc3s2)CC1	inactive
CCOC(=O)c1c(NC(=O)c2ccc(Br)o2)sc(C)c1CC	inconclusive [activator, single point]
CCN(CC)S(=O)(=O)c1ccc2c(c1)N(CC(=O)NCCc1ccc(S(N)(=O)=O)cc1)C(=O)CO2	inconclusive [activator, partial curve, poor fit]
CCCCCOc1ccc(C(=O)NC(C(=O)O)C(C)C)cc1 (stereo not given)	inconclusive [activator, single point]
COc1ccc(COCC(O)CN2CCN(S(=O)(=O)c3c(F)cccc3F)CC2)cc1OC (stereo not given)	inactive
COc1ccccc1CO/N=C/NC(=O)c1c(OC)ccnc1Oc1ccc(F)cc1	inconclusive [activator, single point]
CCCN(CC(=O)Nc1ccccc1C)C(=O)C1CCN(c2ncnc3sc(C)c(C)c23)CC1	inconclusive [activator, partial curve, poor fit]
N#C/C(=N\Nc1cccc2ccccc12)c1nnc2n1CCCCC2	inconclusive [activator, partial curve, poor fit]
COc1ccccc1C(C[N+](=O)[O-])c1c[nH]c2ccccc12 (stereo not given)	inconclusive [activator, partial curve, poor fit]
COc1ccc(C(=O)Nc2ccc(Cl)cc2C(=O)NCCN2CCOCC2)cc1	inactive
COc1cc(Cl)ccc1NC(=O)COc1ccccc1C(=O)N1CCN(c2ccc(O)cc2)CC1	inactive
CC(=O)NC(c1ccccc1)c1cc(Cl)c2cccnc2c1O (stereo not given)	inconclusive [activator, partial curve, poor fit]
CCOc1cc(/C=N/NC(=O)Cn2nc([N+](=O)[O-])cc2C)ccc1OCc1ccc(F)cc1	inconclusive [activator, single point]
O=C(C#Cc1ccccc1)c1ccc([N+](=O)[O-])cc1	inconclusive [activator, full curve, poor fit]
COc1cc(C(=O)Nc2ccc(S(=O)(=O)NC(C)C)cc2)cc(OC)c1OC	inconclusive [activator, partial curve, poor fit]
Cc1cccc(C(=O)NC(=S)NNC(=O)c2ccccc2Cl)c1	inconclusive [activator, single point]
Cc1ccc(S(=O)(=O)N2CCOCC2)cc1C(=O)Nc1nc(-c2ccccn2)cs1	inconclusive [activator, partial curve]
O=C(NC(=S)Nc1nc(-c2ccc(Br)cc2)cs1)c1ccco1	inactive
O=[N+]([O-])c1cc2c(cc1/C=N/Nc1nc(N3CCCC3)nc(N3CCCC3)n1)OCO2	inactive
O=C1/C(=C/c2ccc(F)cc2)SC(=S)N1CCCC(=O)N1CCCCC1CCO (stereo not given)	inconclusive [activator, partial curve]
CN1CCc2nc3sc(C(=O)C45CC6CC(CC(C6)C4)C5)c(N)c3cc2C1	active: 9.2 µM

Compound	Potency
O=C(O)C1Nc2ccc(Br)cc2C2C=CCC12 (stereo not given)	inactive
Nc1cc(=O)[nH]c(SCC(=O)c2ccc(F)cc2)n1	inconclusive [activator, single point]
C=CCn1c(C)cc(C(=O)COC(=O)CCc2cc(OC)c(OC)c(OC)c2)c1C	inactive
O=c1c(Cl)c(NCc2ccccc2Cl)cnn1C12CC3CC(CC(C3)C1)C2	inconclusive [activator, full curve, poor fit]
CC(NC(=S)Nc1ccc(Cl)cc1Cl)C(c1cccs1)N1CCCC1 (stereo not given)	inconclusive [activator, full curve, poor fit]
O/N=C/c1cc(Br)ccc1OCc1ccccc1F	inconclusive [activator, single point]
CC(=O)N1c2ccc(S(=O)(=O)N3CCCC(C(=O)Nc4ccc(F)cc4)C3)cc2CC1C (stereo not given)	inactive
CCC(=O)N1c2ccccc2[C@@H](N(C(C)=O)c2ccccc2)C[C@H]1C	inconclusive [activator, full curve, poor fit]
Cc1ccc(C2=NC3(CCCC3)N=C2SCC(=O)Nc2ccc3c(c2)OCCO3)cc1	inconclusive [activator, single point]
CCOC(=O)/C(=N/Nc1ccc(Br)cc1)N1CC(C)OC(C)C1 (stereo not given)	inconclusive [activator, single point]
Cc1ccc(S(=O)(=O)NCCC(=O)N2CCOCC2)cc1C	inactive
CCOc1ccc(OCc2ccc(C(=O)NCc3ccncc3)o2)cc1	active: 18.4 µM
Cc1cc(C)c(C)c(C(=O)COC(=O)CNC(=O)CNC(=O)c2ccco2)c1C	inactive
CCC[C@H](CN[C@@H](CNC)[C@H](C)O)NCCc1ccc(OC)cc1	inconclusive [activator, single point]
COc1ccccc1-c1csc(NC(=O)c2ccc(N3C(=O)CCC3=O)cc2)n1	inactive
CSc1ccc(/C=c2\s/c(=C\C(=O)C(C)(C)C)n(CC(=O)NCCC3=CCCCC3)c2=O)cc1	inconclusive [activator, partial curve, poor fit]
COc1ccc2c(c1)c1nc3ccccc3nc1n2CCCN1C(=O)c2ccccc2C1=O	inconclusive [activator, partial curve]
C=C1[C@H]2O[C@H]2[C@@H](OC(C)=O)[C@@]2(C)[C@@H](OC(C)=O)C[C@@H](OC(C)=O)[C@@](C)(O)[C@@H]2[C@@H](OC(C)=O)[C@@]2(O)[C@@H](C)C(=O)O[C@H]2[C@H]1Cl	inconclusive [activator, partial curve, poor fit]
C#CCOc1c(Br)cc(/C=N\NC(=O)CN2CCOCC2)cc1OCC	inactive
CSc1nnc(C)c(/C=C/NOCc2ccc(Cl)cc2)n1	inconclusive [activator, single point]
CCc1ccc(N2C(=O)c3sc4nnc(-c5ccccc5)c(=O)n4c3C2=O)cc1	inconclusive [activator, partial curve]
Cn1c(N)c(C(=O)COC(=O)c2ccccc2C(=O)c2ccccc2)c(=O)n(C)c1=O	inactive

Compound	Potency
COc1ccc(CCN2C(=O)NC(NS(=O)(=O)c3ccc(NC(C)=O)cc3)(C(F)(F)F)C2=O)cc1OC (stereo not given)	inactive
CCN=C(NS(=O)(=O)c1ccc(Br)cc1)c1ccc(Cl)cc1	active: 1.84 µM
COc1cc(OC)c(/C=C2\SC(=O)N(CC(=O)Nc3ccccc3F)C2=O)c(OC)c1	inconclusive [activator, full curve, poor fit]
Cc1c(Cl)cccc1NCC(=O)Nc1ccc(Cl)cc1F	inconclusive [activator, partial curve, poor fit]
CCC1CCCCN1CCCNC(=O)c1cc2c(=O)oc3ccc(C)cc3c2s1 (stereo not given)	inactive
CC(=O)c1sc(-c2ccccc2Cl)nc1C	inconclusive [activator, single point]
CCCCn1c(N)c(N(CC(C)C)C(=O)Cc2ccc3c(c2)OCCO3)c(=O)[nH]c1=O	inactive
CCN1C(=O)/C(=C/c2nc3ccccc3c(=O)n2-c2ccc(C)cc2)c2ccccc21	inconclusive [activator, single point]
COC(=O)COc1ccc2c(c1C)O/C(=C\c1ccco1)C2=O	inconclusive [activator, partial curve, poor fit]
Cc1c(C(=O)Nc2nccs2)oc2c(Cl)cccc12	inconclusive [activator, single point]
O=C(c1ccc(Cl)c(S(=O)(=O)Nc2ccccc2C(=O)N2CCc3ccccc3C2)c1)N1CCc2ccccc2C1	inconclusive [activator, single point]
O=C(Nc1cccnc1)c1cc(-c2cccc(Cl)c2)on1	inconclusive [activator, partial curve, poor fit]
O=C(/C=C/c1ccco1)N/C(=C\c1ccccc1)C(=O)NCCc1nc2ccccc2[nH]1	inconclusive [activator, single point]
COc1cccc(-c2ncc3ccccc3c2COC(=O)N2CCCCC2)c1	inconclusive [activator, partial curve, poor fit]
COc1cccc(/C=N/NC(=O)c2cc3c(OC)cccc3[nH]2)c1OC	inconclusive [activator, single point]
Cc1c(N2C(=O)CSC2c2ccc(F)cc2)c(=O)n(-c2ccccc2)n1C (stereo not given)	inconclusive [activator, single point]
Cc1onc(-c2ccccc2Cl)c1C(=O)NCc1ccccc1F	inactive
COc1ccc(-n2nc([N+](=O)[O-])c(=NCCc3ccccc3)n2O)cc1	inactive
CC(C)(C)NC(=O)C(c1ccncc1)N(Cc1ccc(F)cc1)C(=O)c1ccc(-c2ccccc2)[nH]1 (stereo not given)	inconclusive [activator, single point]
Cc1ccc(NC(=S)NC(=O)c2ccc(F)cc2)cc1S(=O)(=O)Nc1ccccc1Cl	inconclusive [activator, full curve, poor fit]
OCCN1CCN(C2CCC(c3ccc(F)cc3)c3ccc(F)cc32)CC1 (stereo not given)	active: 20.6 µM
